Test results reported in the RNAGym collection of RNA variant scans (doi:10.1073/pnas.2313332121).
Variants at the floor of the assay are shown more often than the library holds them.

B1: TPR 5TU (parent)
chain: GGAUCUUCUCGAUCUAACAAAAAAGACAAAUCUGCCACAAAGCUUGAGAGCAUCUUCGGAUGCAGAGGCGGCAGCCUUCGGUGGCGCGAUAGCGCCAACGUUCUCAACUAUGACACGCAAAACGCGUGCUCCGUUGAAUGGAGUUUAUCAUG

Variants of: B1
Experiment: polymerase ribozyme fitness, log enrichment relative to wild type (log ratio); higher = more active; in vitro selection for triplet polymerase activity
Summary of the method: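 Frozen incubation at −7 °C formed the core of a single, triplicate in vitro selection round applied to PCR-built, transcribed mutant libraries of each subunit of a heterodimeric triplet polymerase ribozyme. Extended constructs were gel-excised, captured with streptavidin beads and amplified by RT-PCR, and input and output libraries were Illumina-sequenced with a filter of ≥10 input reads and ≥1 read per output. Fitness is the logarithm of genotype enrichment relative to wild-type enrichment, with inverse-variance-weighted replicate averaging, and the logarithm is base 2.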

Polymerase ribozyme fitness (log ratio), ≤ -4.2:
GGAUCUUCUCCAUCUAACUAAAGAGACAAAUCUGCCACAAAGCUUGAGAGCAUCUUCGGAUGCAGAGGCGGCAGCCUUCGGUGGUGCGAUAGCGCCAACGUUCUCAACUAUGACACGCAAAACGCAUGCUCCGUCCAAUGGAGUUUAUCAUU
GGAUCUUCUCCAUCUAACAAUAAAGACAAAUCUGCUACAAAGCUUGAGAGCAUCUUCGGAAGCAGAGGCGGCAGUCUUCGGUGGCGCGAUAGCGCCAAAGUGCUCAACUAUGACACGCAAAACGCGUGCGCCGUUGAAUGCAGUUUAUCAUG
GGAUCUUCUCCAUCUAACAAAGAAGUCAAAUCUGCCACAAAGCUUGAGAGCAUCUUCGGAUGCAGAGGCGGCAGCCUUCGGUAGCGCGCGAGCGCCAACGUUCUCAACUAUGACACGCAAAAUGCGUGCUCCGUUGAAUGGAGUUUAUCAUG
GGAUCUUCUCCAUCUAACAAAGAAGUCAAAUCUGCCACAAAGCUUGAGAGCAUCUUCGGAUGCAGAGGCGGCAGCCUUCGGUAGCGCGCGAGCGCCAACGUUCUCAACUAUGACACGCAAAAUGCGUGCUCCGUUGAAUGGAGUUUAUAAUG
GGAUCUUCUCCAUCUAACAAAUAAGAAAAAUGUGCCACAAAGCUUGAGAGCAUCUUCAGAUGCAGAGGCGGCAGCCUUCGGUGGCGCGAUAGCCCCAACGUUCUCAACUAUGACCCGCAAAACGCGUGCUCCGAUGAAUGGAGUCUAUCAUG
GGAUCUUCUCCAUCUAACAAAAUAGACAAAUCUGCCACAAAGCUUGAGAGCAACUUCGGAUGCAGAGGCGGCAGCCUUCGUUGGCGAGAUAGCGCCAACGUUCUCAACUAUGACACGCAAAACGCGUGCUCCGUUGAAUUGAGUUUAUCAUG
GGAUCUUCUCCAUCUAACAAAAAUGACAAAUCUGCCACAAAGCUUGAGAGCAUCUUCGGAUGCAGAGGCGGCAGCCUUCGGUGGCGCGAUAGCGCCAACGUUCUCAACUAUGACACGCCAAACGCGUGCUCCGUUGAAUGGAGUUUAUCAUG
GGAUCUUCUCCAUCUAACAAAAAUGACAAAGCUGCCAAAAAGCUUGAGAGCAUCUUCGAAUGCAGAGGCGGCAGCCUUCGGUGGCUCGAUAGCGCCAACGUCCUCAACUAUGACACGCAAAACGCGUCCUCCGUUGAAUGGAGUUUAUCAUG
GGAUCUUCUCCAUCUAACAAAAAAGGCAAAUCUGCCACAAAGCUUGAGAGCAUCUUCAGAUGCAGAGGCGGCAGCCUUCGGUGGCGCGAUAGCGCCAACGUUCUCAACUAUGACACGCAAAACCCGUGCUCCGUUGAAUGGAGUUUAUCAUG
GGAUCUUCUCCAUCUAAGAAAAAAGACAAAUCUGCCACAAAGCUUGAGAGCAUCUUCGGAUGCAGAGGCGGCAGCCUUCGGUGGCCCGAUAGCGCCAACGUUCUCAACUAUGACACGCAAAACGCGUGCUCCGUUGAAUGGAGUUUAUCAUG
GGAUCUUCUCCAUCUAACAAAAAAGAGAAAUCUGCCUCAAAGCUUGAGAGCAUCUUCGGAUGCAGAGGCGGCAGCCUUCGGUGGCGCGAUAGCGCCAACGUCCUCGACUAUGACACGCAAAACGCGUGCUCCGUUUAAUGGAGUUUAUCAUG
GGAUCUUCUCCAUCUAACAAAAAAGAGAAAUCUGCCACAAAGCUUGAGAGCAUCUUGGGGUGCCGAGGCGGCAGCCUUCGGAGGCGCGAUAGCGCCAACGUUCUCAACUAUGAUACGCAAAACGCGUGCUCCGUUGAAUGGAGUUUAUCAUG
GGAUCUUCUCCAUCUAACAAAAAAGACAAAUCUGCCACAAAGUUUGAGAGCAUCUUCGGAUGCAGAGGCGGCAGCCUUCCGUGGCUCGAUAGCGCCAACGUUCUCAACUAUGACACGCAAAACGCGUGCUCCGUUGAGUGGAGUUUAUCAAG
GGAUCUUCUCCAUCUAACAAAAAAGACAAAUCUGCCACAAAGCUUGAGAGCAUGUUCGCAAGCAGAGGCGGCAGCCUUCGGUGGCGCGAUAGCACCAACGUUCUCUACUAUGACACGCAAAACGGGUGCUCCGUUGAAUGGCGUUUAUCAUG
GGAUCUUCUCCAUCUAACAAAAAAGACAAAUCUGCCACAAAGCUUGAGAGCAUCUUCGGAUGCAGAGGCGGCAGCCUUCGGUGGCGAGAUAGCGCCAACGUUCUCAAAUAUGACGCGCAAAACGCGUGCUCCGUUGACUGGAGUUUAUCAUG
GGAUCUUCUCCAUCUAACAAAAAAGACAAAUCUGCCACAAAGCUUGAGAGCAUCUUCGGAUGCAGAGGCGGCAGCCUUCGGUGGCGCGAUAGCGUCAACGUUCUCAACUAGCACACGCAAAACGCGUGCUCCGUUGAAUGGCGUUUAUCAUG
GGAUCUUCUCCAUCUAACAAAAAAGACAAAUCUCCCACAAAGCUUGAGAGCAUCUUCGGAUGCAGAGGCGGCAGCCUUCGGUAGCGCGAUUGCGCCAACGUCCUCAACUAUUUCACGCAAAACGCGUGCUCCGUUGAAUGGCGUUUAUCAUG
GGAUCUUCUCCAUCUAACAAAAAAGACAAAUCUGCCACAAAGCUUGAGAGCAUCUUCUGAUGCAGAGGCCGCAGCCUUCGGUGGAGGGAUAGCGUCAACGUUCUCAACUAUGGCAUGCAAAACGUGUGCUCCGUUGAAUGGAGUUUAUCAUG
GGAUCUUCUCCAUCUAACAAAAAAGACAAAUCUGCCACAAAGCUUGAGAGCAUCUUCGCAUGCAGAGGCGGCAGCCUUCGGUGGCGCGAUAGCGACAAGGUUCUCAACUAUGACACGCAAAACGCGUGCUCCGUUGAAUGGAGUUUAUCAUG
